T1: UNK ZnF1-3 (human, UniProt Q9C0B0 31-174)
T1 sequence: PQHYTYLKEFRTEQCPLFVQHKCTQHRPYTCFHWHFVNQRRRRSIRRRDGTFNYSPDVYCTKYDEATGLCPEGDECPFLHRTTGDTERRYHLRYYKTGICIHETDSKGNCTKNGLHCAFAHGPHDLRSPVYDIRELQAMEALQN

B1: 112363417_112363537_2605_3pUTR_ENSMUSG00000074748_ENSMUST00000099276|mouse|control|control (ssRNA)
RNA: GGGAGUUCUACAGUCCGACGAUCACAGUCUCAAGGCUCAAGCACUAUAAUUGCCUCAACUCUUUGAGUAUAAUCCAAAUUAGUCCACACACUUCAAAUAGCUCCUGGGAGAAGGAAGAUACAUACACAAUAGGAUUAGAAAUGCAACAGAGGAUUGAGCAUCA
B2: chr5:15937888:15937889:+_ENSG00000183580_ENST00000504595|hu_hu|FALSE|FALSE (ssRNA)
RNA: GGGAGUUCUACAGUCCGACGAUCGCAGUGAAGUGCUUUGGCCAAGGUCAUAGUCAUUGACAGAGCUGGGGGAGGACUGCAUGUCCUUCCCCAGCUGUUUGCUGUAAUGAAUUUUUUAAAAAGGCCUGAAAAGUAUUUUGCCUACAACAGAGGAUUGAGCAUCA
B3: chr4:147379129:147379130:-_ENSMUSG00000029016_ENSMUST00000137724|mus_mus|motif|central (ssRNA)
RNA: GGGAGUUCUACAGUCCGACGAUCUGUCCUAGAGGAGCAUGGGCCAGGGUGGGUAUGCCUGGACCCUGUCCACUCUGGGCGGAACUGAUGGUCACACACACACACACACACACUCGAUGGACAAAUCACAACAGGACUGGCUUGCAACAGAGGAUUGAGCAUCA
B4: chr15:80081215:80081216:+_ENSMUSG00000022412_ENSMUST00000023048|mus_mus|FALSE|FALSE (ssRNA)
RNA: GGGAGUUCUACAGUCCGACGAUCCUCUGAUAAAACAGUUGCAGCCGGCGCCUCCAGUGUUGGUCAAUGCCCCGUCCCCACGAUCAAAAGCCUUAGCUCAGAUAAAGAGGAGUUGCUUAGGGUAGGGAGAGGAGAUAAGCUUGUCAACAGAGGAUUGAGCAUCA
B5: chr7:81084073:81084074:-_ENSMUSG00000025789_ENSMUST00000026896|mus_hu|FALSE|FALSE (ssRNA)
RNA: GGGAGUUCUACAGUCCGACGAUCAGGAUUUAAUCCAACAAACAUUUAUUGAGCAACUGCUGUGUGCUAUGCACCACGCCUAGUGCUGUGAUGGAUACAGAUGAAUAAAACACAGUCCCUGCCCUUGGCAAGCUUACAGUCUAACAACAGAGGAUUGAGCAUCA
B6: chr16:2814526:2814527:+_ENSG00000167978_ENST00000301740|hu_hu|FALSE|FALSE (ssRNA)
RNA: GGGAGUUCUACAGUCCGACGAUCCUCAGAAGAAAAUCCAGUAUUCAUUUCUGUACCAAGUGGGCCUGAGUUUCUAAAUUCUAAAGGUGAUCCAAAGCUGUUCUCCCUGAGUGGGGAGUUAGACAGUUCUUUAUGUUCUGGAGACAACAGAGGAUUGAGCAUCA
B7: chr1:95363388:95363389:-_ENSG00000117519_ENST00000538964|hu_mus|motif|central (ssRNA)
RNA: GGGAGUUCUACAGUCCGACGAUCCCGAGGGUAGUCGUCUGGGUACUCGCCAUGAUAUUCAUCGGGGUAUUCUGCCUGAUAAUCGCGGUCACUGAUUUCCGACCCAUUGGUGCCCGUGCCCUGGCUUCCGUUGUGAAUGACAGGCAACAGAGGAUUGAGCAUCA
B8: chr1:46159212:46159213:+_ENSG00000159596_ENST00000372025|hu_mus|hu_hu_hu_mus_True|1_38 (ssRNA)
RNA: GGGAGUUCUACAGUCCGACGAUCUCUGAUCCCUCCCAAGAAAGCUAGGAAACCGGCUCCAUAAGCCAUCUGAGUGAAAGCUAGGACGGGGAUAUAAGUUUUUGUCAUUACCAUGAGAAGUGGGGGAGCAGUAAAGGGGAUUAGCAACAGAGGAUUGAGCAUCA
B9: chr1:39494564:39494565:+_ENSG00000168653_ENST00000372967|hu_hu|hu_hu_hu_mus_True|18_58 (ssRNA)
RNA: GGGAGUUCUACAGUCCGACGAUCAUGCAUUCGCCUCAUCGUUUUGUACCGAAGCAAGCACUCUUCGAAGUCAUCGAAUUCUAUCUUGCACUCCUUUUUCGCCCGGGUCCCACCGAUUCCAUGUGCACACUCUAUCCACUCUUUCAACAGAGGAUUGAGCAUCA
B10: chr3:20019835:20019836:+_ENSG00000144566_ENST00000273047|hu_hu|motif|central (ssRNA)
RNA: GGGAGUUCUACAGUCCGACGAUCCAUGAAUAUUUCAUUUACAUUCAUUGAUGUUUUAGCGGAUGUCUCCAUGAAUAAUAAACGGUUGUCAUCUGCAUAGGACUGUGCUUCCUGGAAAUCUACUGCUCUUUUAUUUGCUAGGUCCAACAGAGGAUUGAGCAUCA
B11: chr17:62496344:62496345:-_ENSG00000108654_ENST00000581693|hu_mus|motif|central (ssRNA)
RNA: GGGAGUUCUACAGUCCGACGAUCCCCAAAAUCUCUCUUAAGCAGAUUAGAGUAGCCUCUGUCAUAGUUUUCCCUGUCUCGGAAGGUAUUAAAUCCACCCCUUUUGCCUGCAGAGUAUCUGUCACGACGAUCGUCCUUCAUGCCCAACAGAGGAUUGAGCAUCA
B12: 34166624_34166744_176_5pUTR_ENSMUSG00000024376_ENSMUST00000025234|mouse|control|control (ssRNA)
RNA: GGGAGUUCUACAGUCCGACGAUCCGUGGGGCGGAGCCCUGGGCGGGAGCAGCCCAGGUACAGCCAGCCCCGGCCCGGGGCGUCGGCAAAAGGCCUCGAAACUGAAGUAGGAGCCCCGGGACGGUGACCCGAGCGCCCCCCUUCCAACAGAGGAUUGAGCAUCA
B13: chr22:32879901:32879902:+_ENSG00000100225_ENST00000397426|hu_mus|hu_hu_hu_mus_False|28_38 (ssRNA)
RNA: GGGAGUUCUACAGUCCGACGAUCCUCUUCCAUACUCAUGGCAUCCUGAAUUGACUCAGCUUCAACAUUUUGACUAGGCCCUUCCAUACUGUCAUCAUUCCAAACACCAGACUGGGCGGCCUGUCCUUGGGAUGAAUCAGUCCCCAACAGAGGAUUGAGCAUCA
B14: chr9:107755404:107755405:-_ENSMUSG00000032582_ENSMUST00000035201|mus_mus|FALSE|FALSE (ssRNA)
RNA: GGGAGUUCUACAGUCCGACGAUCCUCUAUAAUCCAUAGGAGUACCAUCUCCACCCCUGUAGUCCAUAGGUGGUCCUUCUCUAUCCCGAAAAUCCCCAGAAUGUAUGUCCCUGUUCCUGAAGUCCAACUGUGCUGAAUCUCUACCAACAGAGGAUUGAGCAUCA
B15: 120571260_120571380_2981_CDS_ENSMUSG00000090100_ENSMUST00000028740|mouse|control|control (ssRNA)
RNA: GGGAGUUCUACAGUCCGACGAUCCUCUGAGACACAAUGAUAGAGCUCUCCAUUUCUAGGGACAACUUUCUCUCUCUUACCCUCUUGGUGCAAAAAAGCAGAGAGGUCUCCCUGCUGCCUUGGCAAGCUUUCACUCUGAAUACCCAACAGAGGAUUGAGCAUCA
B16: chr1:109605286:109605287:-_ENSG00000197780_ENST00000461096|hu_mus|hu_hu_hu_mus_True|68_78 (ssRNA)
RNA: GGGAGUUCUACAGUCCGACGAUCAAGUUUCAGAGUAACAUUCAGUAACCUCUUUAACAAUUGUAAUCCUUACUUUAAGCUAAGCAGAAUAAUAAUUUAAUACCGUAAGUGAACUACACACAAAGCCUGAACCGCGAAAAUGGUCAACAGAGGAUUGAGCAUCA
B17: 83833361_83836788_2724_CDS_ENSMUSG00000034940_ENSMUST00000092834|mouse|control|control (ssRNA)
RNA: GGGAGUUCUACAGUCCGACGAUCAAGGCUCAAGCUCCUCUUGUGUGAUCCUUGAACAGAAAGGUCAAAGGUUGCCAGCUCACUUUUGAUCAUUUCUUCACUGGAUUUCAUUUUGCUCUGGGAAUUAGCUACUAAGAAGUCAAACAACAGAGGAUUGAGCAUCA
B18: chr10:57943292:57943293:+_ENSMUSG00000003226_ENSMUST00000003310|mus_mus|motif|central (ssRNA)
RNA: GGGAGUUCUACAGUCCGACGAUCCAAAGAACCAGUGGCUGAACUGUUGCCAAAUGCAAAUGGCUUGGAUUUUUCACGGCGGAAAAUGCUUUUAACAGAUUCUGAGCCAAAUACAAACUUAGGAGGAGAAACUACUGCUUUUGGCAACAGAGGAUUGAGCAUCA
B19: chr7:151048522:151048523:+_ENSG00000013374_ENST00000566856|hu_mus|hu_hu_hu_mus_True|58_68 (ssRNA)
RNA: GGGAGUUCUACAGUCCGACGAUCCUGUUUCUUAUUUAUUACGAUCUUGAUGUAAUUUUCUUGAAAUCCAAAGGUUUCAGCUAUUUUACACCUCAGGUCUCUACCAGUGACAUGCAAGCGGGUCUCCAACAAGCUUUUCUUAUCCAACAGAGGAUUGAGCAUCA
B20: 31147569_31147689_162_5pUTR_ENSMUSG00000036957_ENSMUST00000046351|mouse|control|control (ssRNA)
RNA: GGGAGUUCUACAGUCCGACGAUCAAAUAUUGGGAUCCAUGCUCCAAAAUAAUGGGGUUCGGCUUCCAAAUCUUGGGGUCCCAGAGACGGAUGUCGGGAUUCCAGCCCCAGAUAUUGAGGUUCAAGGUCCGAGUCUUAGGGUUCCAACAGAGGAUUGAGCAUCA
B21: chr8:74858975:74858976:-_ENSG00000154582_ENST00000284811|hu_mus|hu_hu_hu_mus_True|48_88 (ssRNA)
RNA: GGGAGUUCUACAGUCCGACGAUCGACCUUGUAGGUAAAAUACAUGCAUACUUUCGAUAGCACAUGUGAGGGGAUCUCUCUAAAAUUGACCUCAUUGGUUUCAUUCUCAGCAAACUGACCUGGACCACUCAACAUAGCCUUUAUCAACAGAGGAUUGAGCAUCA
B22: 4711491_4711611_344_5pUTR_ENSMUSG00000067889_ENSMUST00000008991|mouse|control|control (ssRNA)
RNA: GGGAGUUCUACAGUCCGACGAUCCCUUUUCAAAGGUCCCUUUUGGGGCACCUCCAGGCCAUCUCGCUUAAGCGUUUCUCUCUGCCUUGCCCCCUUUCUCUCGUCCUCCUUCUGGCAGGUAGGCUGGCCCGCUUUCCAAAAGCACAACAGAGGAUUGAGCAUCA

Some of the results follow.

The assay has as its target T1, UNK ZnF1-3. Put plainly: nsRBNS (natural sequence RNA bind-n-seq); RBNS binding buffer (assumed for nsRBNS): 25 mM Tris pH 7.5, 150 mM KCl, 3 mM MgCl2, 0.01% Triton X-100, 500 ug/ml BSA, 20 U/ml SUPERase-In, 4 C; UNK is unkempt and MSI1 is Musashi-1; names of the RNAs are library labels; protein concentration not given here; high values mean tight binding.
As to B1, the binding signal was determined as 1.67 enrichment R.

The molecule B2 yielded a binding signal of 0.88 enrichment R.

In the case of B3, the binding signal was 1.43 enrichment R.

B4 showed a binding signal of 1.15 enrichment R.

The molecule B5 registered a binding signal of 1.2 enrichment R.

Consider B6, for which the binding signal was determined as 1.14 enrichment R.

For B7, the binding signal was found to be 0.722 enrichment R.

As to B8, the binding signal is 2.07 enrichment R.

On to B9, for which the binding signal turned out to be 0.598 enrichment R.

In turn, B10 came in with a binding signal of 0.589 enrichment R.

Consider B11, for which the binding signal was determined as 0.883 enrichment R.

Regarding B12, the binding signal came out at 0.519 enrichment R.

For the molecule B13, the binding signal worked out at 1.05 enrichment R.

In turn, B14 showed a binding signal of 0.897 enrichment R.

The molecule B15 yielded a binding signal of 0.897 enrichment R.

Molecule B16 showed a binding signal of 0.896 enrichment R.

As to B17, the binding signal is 0.791 enrichment R.

With B18, the binding signal is 2.2 enrichment R.

The molecule B19 returned a binding signal of 0.569 enrichment R.

In turn, B20 returned a binding signal of 0.968 enrichment R.

Take B21: the binding signal was determined as 0.946 enrichment R.

In turn, B22 came in with a binding signal of 0.76 enrichment R.
